Laboratory results from EPA's CvTdb concentration-time database.
The source gives many values for each of these; only a part stands here.

Experiments:
Assay in all cases: concentration in plasma after dosing
[1] = system: Rat; conditions: dosed: Methyleugenol, 150 mg/kg, oral, Male, F344/N
[2] = system: Rat; conditions: dosed: Methyleugenol, 150 mg/kg, oral, Female, F344
[3] = system: Rat; conditions: dosed: Methyleugenol, 75 mg/kg, oral, Female, F344/N
[4] = system: Rat; conditions: dosed: Methyleugenol, 150 mg/kg, oral, Male, F344
[5] = system: Rat; conditions: dosed: Methyleugenol, 75 mg/kg, oral, Female, F344
[6] = system: Rat; conditions: dosed: Methyleugenol, 75 mg/kg, oral, Male, F344/N
[7] = system: Rat; conditions: dosed: Methyleugenol, 75 mg/kg, oral, Male, F344/N; remark: listed apart in the source
[8] = system: Rat; conditions: dosed: Methyleugenol, 75 mg/kg, oral, Male, F344/N; remark: listed apart in the source
[9] = system: Rat; conditions: 0.5 h; dosed: Methyleugenol; 37 mg/kg; oral; Female; F344
[10] = system: Rat; conditions: dosed: Methyleugenol, 75 mg/kg, oral, Male, F344/N; remark: listed apart in the source
[11] = system: Rat; conditions: 5 min; dosed: Methyleugenol; 37 mg/kg; oral; Male; F344
[12] = system: Rat; conditions: 0.25 h; dosed: Methyleugenol; 37 mg/kg; oral; Female; F344
[13] = system: Rat; conditions: dosed: Methyleugenol, 150 mg/kg, oral, Male, F344; remark: listed apart in the source
[14] = system: Rat; conditions: dosed: Methyleugenol, 75 mg/kg, oral, Female, F344; remark: listed apart in the source
[15] = system: Rat; conditions: dosed: Methyleugenol, 150 mg/kg, oral, Female, F344/N
[16] = system: Rat; conditions: dosed: Methyleugenol, 75 mg/kg, oral, Female, F344/N; remark: listed apart in the source
[17] = system: Rat; conditions: 1 h; dosed: Methyleugenol; 37 mg/kg; oral; Male; F344
[18] = system: Rat; conditions: dosed: Methyleugenol, 75 mg/kg, oral, Female, F344/N; remark: listed apart in the source
[19] = system: Rat; conditions: dosed: Methyleugenol, 150 mg/kg, oral, Female, F344; remark: listed apart in the source
[20] = system: Rat; conditions: dosed: Methyleugenol, 75 mg/kg, oral, Male, F344
[21] = system: Rat; conditions: dosed: Methyleugenol, 37 mg/kg, oral, Female, F344/N

C=CCc1ccc(OC)c(OC)c1 [Methyleugenol]
Conditions | concentration in plasma [ng/mL]
[1], 2 h | 587
[1], 4 h | 805
[2], 5 min | 4800
[2], 6 h | 248
[3], 1.5 h | 349
[3], 5 h | 74.8
[4], 0.25 h | 2480
[4], 4 h | 1730
[5], 0.25 h | 1590
[5], 4 h | 55
[6], 2 min | 310
[6], 6 h | 117
[7], 3 h | 60.1
[7], 20 min | 1360
[8], 1.5 h | 605
[8], 12 h | 7.52
[10], 1 h | 147
[10], 8 h | 52.9
[13], 0.25 h | 2080
[13], 4 h | 1680
[14], 0.5 h | 1810
[14], 1.5 h | 454
[15], 3 h | 1100
[15], 5 min | 3500
[16], 0.5 h | 281
[16], 8 h | 10.9
[18], 1 h | 151
[18], 12 h | 7.73
[19], 0.25 h | 1080
[19], 4 h | 880
[20], 0.25 h | 1090
[20], 4 h | 251
[21], 1 h | 28.7
[21], 4 h | 25.4

Conditions | concentration in plasma [ng/mL]
[9] | 192
[11] | 603
[12] | 475
[17] | 137
